The list shows a part of the results. These are enrichments in a pooled selection; single values are uncertain.
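Further: Per-sequence enrichment computed with FASTAptamer, counting only reads that carry the expected constant 3′ region.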

The experiment concerns the target T1, Drosophila AGO2 (FLAG-tagged, S2-R+ lysate) (UniProt Q9VUQ5).
T1 sequence: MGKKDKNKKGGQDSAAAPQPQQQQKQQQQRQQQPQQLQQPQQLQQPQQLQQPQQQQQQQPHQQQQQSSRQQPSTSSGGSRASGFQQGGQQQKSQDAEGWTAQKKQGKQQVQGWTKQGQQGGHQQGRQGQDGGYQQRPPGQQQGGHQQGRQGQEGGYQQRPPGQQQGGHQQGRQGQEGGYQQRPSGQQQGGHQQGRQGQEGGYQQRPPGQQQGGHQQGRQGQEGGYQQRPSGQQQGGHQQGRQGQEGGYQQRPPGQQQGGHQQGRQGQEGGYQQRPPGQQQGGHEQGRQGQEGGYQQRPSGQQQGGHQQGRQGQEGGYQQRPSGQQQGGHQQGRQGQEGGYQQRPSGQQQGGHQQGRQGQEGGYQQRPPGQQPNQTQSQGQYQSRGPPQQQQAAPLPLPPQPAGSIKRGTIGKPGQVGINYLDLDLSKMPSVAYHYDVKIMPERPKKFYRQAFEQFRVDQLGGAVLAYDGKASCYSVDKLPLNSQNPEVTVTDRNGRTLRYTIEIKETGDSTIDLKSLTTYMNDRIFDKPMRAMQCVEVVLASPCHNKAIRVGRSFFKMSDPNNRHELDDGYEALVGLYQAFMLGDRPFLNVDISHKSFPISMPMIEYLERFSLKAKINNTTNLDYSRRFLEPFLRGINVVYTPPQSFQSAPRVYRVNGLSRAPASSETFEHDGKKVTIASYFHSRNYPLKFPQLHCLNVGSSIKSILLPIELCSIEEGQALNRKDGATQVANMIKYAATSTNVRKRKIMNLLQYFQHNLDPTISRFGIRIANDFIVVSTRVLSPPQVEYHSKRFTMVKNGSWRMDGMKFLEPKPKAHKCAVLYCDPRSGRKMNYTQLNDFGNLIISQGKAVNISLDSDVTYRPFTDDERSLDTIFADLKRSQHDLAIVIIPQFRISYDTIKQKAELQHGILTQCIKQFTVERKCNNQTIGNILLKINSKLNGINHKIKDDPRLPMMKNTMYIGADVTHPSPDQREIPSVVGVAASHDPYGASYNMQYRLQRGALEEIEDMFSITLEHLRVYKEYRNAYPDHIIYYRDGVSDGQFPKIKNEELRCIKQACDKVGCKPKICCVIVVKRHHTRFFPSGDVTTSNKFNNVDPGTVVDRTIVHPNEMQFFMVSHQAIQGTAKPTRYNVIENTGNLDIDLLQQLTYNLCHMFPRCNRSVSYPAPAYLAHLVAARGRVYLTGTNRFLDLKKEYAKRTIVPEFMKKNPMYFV
The experiment can be described thus: AGO2 loading enrichment factor (IP read count / input read count, not library-size normalised) (ratio); higher = more efficient loading into AGO2. The note with it: randomized region: 5' 5N of miR-317 loop. The procedure:
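HISSA: 5'-phosphorylated, 32P-labelled 20-nt ssRNA oligos (miR-317 loop, first 5 nt randomized, constant 3' part TGAAATGCAAGCAAG as printed in methods; DNA letters for RNA) incubated 1 h at 25°C in lysate of S2-R+ cells expressing FLAG-AGO2. FLAG-AGO2 was immunopurified and bound oligos were sequenced after splinted ligation. Enrichment factor = IP read count / input read count (raw counts, not library-size normalised); single library, no replicates.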
For the sequence GTTTTTGAAATGCAAGCAAG, the “AGO2 loading enrichment factor” value amounted to 0.366.

For CTCTATGAAATGCAAGCAAG, the “AGO2 loading enrichment factor” value came out at 0.466.

For ACGGTTGAAATGCAAGCAAG, the “AGO2 loading enrichment factor” value turned out to be 0.439.

Take TCGGTTGAAATGCAAGCAAG: the “AGO2 loading enrichment factor” value stood at 0.505.

With AGAAATGAAATGCAAGCAAG, the “AGO2 loading enrichment factor” value was determined as 0.455.

With TCGGATGAAATGCAAGCAAG, the “AGO2 loading enrichment factor” value turned out to be 0.923.

For TGCGCTGAAATGCAAGCAAG, the “AGO2 loading enrichment factor” value was found to be 0.161.

Take CACGGTGAAATGCAAGCAAG: the “AGO2 loading enrichment factor” value was found to be 0.458.

In the case of AGGAGTGAAATGCAAGCAAG, the “AGO2 loading enrichment factor” value was determined as 2.25.

Consider GGCCTTGAAATGCAAGCAAG, for which the “AGO2 loading enrichment factor” value came out at 0.232.

Take CGCGCTGAAATGCAAGCAAG: the “AGO2 loading enrichment factor” value stood at 0.114.

As to TTGCCTGAAATGCAAGCAAG, the “AGO2 loading enrichment factor” value amounted to 0.32.

For the sequence TTGCATGAAATGCAAGCAAG, the “AGO2 loading enrichment factor” value came to 0.132.

In the case of CATGGTGAAATGCAAGCAAG, the “AGO2 loading enrichment factor” value amounted to 0.348.

In the case of GAGCCTGAAATGCAAGCAAG, the “AGO2 loading enrichment factor” value is 0.263.

On to TAACATGAAATGCAAGCAAG, for which the “AGO2 loading enrichment factor” value was 0.362.

Take AGAAGTGAAATGCAAGCAAG: the “AGO2 loading enrichment factor” value came out at 0.468.

With CTTTCTGAAATGCAAGCAAG, the “AGO2 loading enrichment factor” value came out at 0.0488.

As for TGTAGTGAAATGCAAGCAAG, the “AGO2 loading enrichment factor” value turned out to be 0.272.

Turning to TAGCATGAAATGCAAGCAAG, the “AGO2 loading enrichment factor” value was 0.221.

Regarding GATCGTGAAATGCAAGCAAG, the “AGO2 loading enrichment factor” value was 0.655.

For the sequence CGGGCTGAAATGCAAGCAAG, the “AGO2 loading enrichment factor” value is 0.278.

ACGCATGAAATGCAAGCAAG: the “AGO2 loading enrichment factor” value was found to be 0.223.

On to TTATATGAAATGCAAGCAAG, for which the “AGO2 loading enrichment factor” value came out at 0.644.

Regarding TGGCGTGAAATGCAAGCAAG, the “AGO2 loading enrichment factor” value is 0.547.

Regarding TCTGCTGAAATGCAAGCAAG, the “AGO2 loading enrichment factor” value came to 0.587.

With AAGTTTGAAATGCAAGCAAG, the “AGO2 loading enrichment factor” value worked out at 0.163.

Consider CTGCTTGAAATGCAAGCAAG, for which the “AGO2 loading enrichment factor” value came out at 1.78.

AGACGTGAAATGCAAGCAAG: the “AGO2 loading enrichment factor” value turned out to be 0.425.

Take TCAATTGAAATGCAAGCAAG: the “AGO2 loading enrichment factor” value came to 0.438.

For the sequence AAGCGTGAAATGCAAGCAAG, the “AGO2 loading enrichment factor” value worked out at 0.328.

Turning to GGTAATGAAATGCAAGCAAG, the “AGO2 loading enrichment factor” value was 0.581.

On to CGGAGTGAAATGCAAGCAAG, for which the “AGO2 loading enrichment factor” value was 1.64.

ACTGCTGAAATGCAAGCAAG: the “AGO2 loading enrichment factor” value is 0.149.

Turning to AACCCTGAAATGCAAGCAAG, the “AGO2 loading enrichment factor” value stood at 0.373.

In the case of AAAACTGAAATGCAAGCAAG, the “AGO2 loading enrichment factor” value is 0.371.

Turning to GACACTGAAATGCAAGCAAG, the “AGO2 loading enrichment factor” value stood at 0.42.

GTACCTGAAATGCAAGCAAG: the “AGO2 loading enrichment factor” value amounted to 0.392.

As for AATATTGAAATGCAAGCAAG, the “AGO2 loading enrichment factor” value was 0.344.

For the sequence CTCGATGAAATGCAAGCAAG, the “AGO2 loading enrichment factor” value came to 0.485.

Turning to AAACATGAAATGCAAGCAAG, the “AGO2 loading enrichment factor” value came to 0.415.

For CGGAATGAAATGCAAGCAAG, the “AGO2 loading enrichment factor” value came to 0.62.

For GACCCTGAAATGCAAGCAAG, the “AGO2 loading enrichment factor” value is 0.815.

Regarding GAGATTGAAATGCAAGCAAG, the “AGO2 loading enrichment factor” value was found to be 0.566.

On to ATGAGTGAAATGCAAGCAAG, for which the “AGO2 loading enrichment factor” value was found to be 0.628.

Turning to CCCGATGAAATGCAAGCAAG, the “AGO2 loading enrichment factor” value is 0.37.

Take GGCGTTGAAATGCAAGCAAG: the “AGO2 loading enrichment factor” value came out at 0.55.

Turning to ACTGTTGAAATGCAAGCAAG, the “AGO2 loading enrichment factor” value amounted to 0.255.

GGTTTTGAAATGCAAGCAAG: the “AGO2 loading enrichment factor” value was 0.559.

GACAATGAAATGCAAGCAAG: the “AGO2 loading enrichment factor” value was 0.428.

Consider CTGGCTGAAATGCAAGCAAG, for which the “AGO2 loading enrichment factor” value came out at 0.0417.

Turning to TCGACTGAAATGCAAGCAAG, the “AGO2 loading enrichment factor” value came out at 0.222.

Take AGTCCTGAAATGCAAGCAAG: the “AGO2 loading enrichment factor” value worked out at 0.448.

For ATACTTGAAATGCAAGCAAG, the “AGO2 loading enrichment factor” value stood at 0.347.

Take GCGATTGAAATGCAAGCAAG: the “AGO2 loading enrichment factor” value was 0.3.

Take GCGGTTGAAATGCAAGCAAG: the “AGO2 loading enrichment factor” value was 0.422.

For the sequence GCCAGTGAAATGCAAGCAAG, the “AGO2 loading enrichment factor” value came to 0.305.

With TTGATTGAAATGCAAGCAAG, the “AGO2 loading enrichment factor” value came to 0.39.

Turning to TGTTTTGAAATGCAAGCAAG, the “AGO2 loading enrichment factor” value was determined as 0.191.

For GTCGATGAAATGCAAGCAAG, the “AGO2 loading enrichment factor” value turned out to be 0.942.

For CATAGTGAAATGCAAGCAAG, the “AGO2 loading enrichment factor” value was 0.286.

On to CGGTGTGAAATGCAAGCAAG, for which the “AGO2 loading enrichment factor” value turned out to be 0.647.

Take CCTCTTGAAATGCAAGCAAG: the “AGO2 loading enrichment factor” value came out at 0.601.

For the sequence ACATGTGAAATGCAAGCAAG, the “AGO2 loading enrichment factor” value worked out at 0.281.

GGCTGTGAAATGCAAGCAAG: the “AGO2 loading enrichment factor” value was 0.369.

Turning to TCCTGTGAAATGCAAGCAAG, the “AGO2 loading enrichment factor” value stood at 0.424.

Regarding CTGATTGAAATGCAAGCAAG, the “AGO2 loading enrichment factor” value stood at 0.625.

Take AACGTTGAAATGCAAGCAAG: the “AGO2 loading enrichment factor” value was determined as 0.416.

Regarding TGATTTGAAATGCAAGCAAG, the “AGO2 loading enrichment factor” value stood at 0.352.

In the case of ATTCTTGAAATGCAAGCAAG, the “AGO2 loading enrichment factor” value turned out to be 0.217.

Turning to AACCTTGAAATGCAAGCAAG, the “AGO2 loading enrichment factor” value amounted to 0.0808.

Turning to TATAATGAAATGCAAGCAAG, the “AGO2 loading enrichment factor” value was 0.399.

GAGCATGAAATGCAAGCAAG: the “AGO2 loading enrichment factor” value amounted to 0.281.

GACTATGAAATGCAAGCAAG: the “AGO2 loading enrichment factor” value came out at 0.355.

For CAGTATGAAATGCAAGCAAG, the “AGO2 loading enrichment factor” value came to 0.376.

Take GCAGTTGAAATGCAAGCAAG: the “AGO2 loading enrichment factor” value is 0.293.

Turning to TCGAATGAAATGCAAGCAAG, the “AGO2 loading enrichment factor” value was determined as 0.41.

In the case of ATGCCTGAAATGCAAGCAAG, the “AGO2 loading enrichment factor” value was determined as 0.505.

CCACTTGAAATGCAAGCAAG: the “AGO2 loading enrichment factor” value worked out at 0.194.

AGACATGAAATGCAAGCAAG: the “AGO2 loading enrichment factor” value is 0.386.

In the case of CAGCGTGAAATGCAAGCAAG, the “AGO2 loading enrichment factor” value is 0.319.

With CGATCTGAAATGCAAGCAAG, the “AGO2 loading enrichment factor” value was found to be 0.462.

On to TGCGGTGAAATGCAAGCAAG, for which the “AGO2 loading enrichment factor” value turned out to be 0.18.

On to ACGGGTGAAATGCAAGCAAG, for which the “AGO2 loading enrichment factor” value stood at 1.9.

As for AATGTTGAAATGCAAGCAAG, the “AGO2 loading enrichment factor” value amounted to 0.237.

Consider TGAGTTGAAATGCAAGCAAG, for which the “AGO2 loading enrichment factor” value was determined as 0.373.

With GAATGTGAAATGCAAGCAAG, the “AGO2 loading enrichment factor” value is 0.297.

Turning to AAGGTTGAAATGCAAGCAAG, the “AGO2 loading enrichment factor” value is 0.458.

As for CTTCGTGAAATGCAAGCAAG, the “AGO2 loading enrichment factor” value was determined as 0.168.

As to TTTCGTGAAATGCAAGCAAG, the “AGO2 loading enrichment factor” value came to 0.508.

For the sequence GTGGATGAAATGCAAGCAAG, the “AGO2 loading enrichment factor” value worked out at 2.17.

CTCTCTGAAATGCAAGCAAG: the “AGO2 loading enrichment factor” value turned out to be 0.225.

ATTGGTGAAATGCAAGCAAG: the “AGO2 loading enrichment factor” value was 0.436.

Take GCAGCTGAAATGCAAGCAAG: the “AGO2 loading enrichment factor” value was found to be 0.0823.

Take TTAACTGAAATGCAAGCAAG: the “AGO2 loading enrichment factor” value worked out at 0.398.

With CATTCTGAAATGCAAGCAAG, the “AGO2 loading enrichment factor” value stood at 0.187.

On to CACTTTGAAATGCAAGCAAG, for which the “AGO2 loading enrichment factor” value was 0.248.

Consider ACGTTTGAAATGCAAGCAAG, for which the “AGO2 loading enrichment factor” value was determined as 0.117.

(Values after the supplement of paper PMC6451100.)
